Results from paper PMC4336329 (PLoS ONE, 2015).
Hit rate of the full screen: of about 310,000 compounds, about 2,200 (0.71%) showed an effect of 50% or more. Effects have a minus sign here. This is one part of the list.

molecular target: human ether-à-go-go-related gene (hERG) potassium channel (human, UniProt Q12809); experiment: primary screen, population patch clamp on CHO cells stably expressing hERG
Sequence (Q12809 whole entry, looked up): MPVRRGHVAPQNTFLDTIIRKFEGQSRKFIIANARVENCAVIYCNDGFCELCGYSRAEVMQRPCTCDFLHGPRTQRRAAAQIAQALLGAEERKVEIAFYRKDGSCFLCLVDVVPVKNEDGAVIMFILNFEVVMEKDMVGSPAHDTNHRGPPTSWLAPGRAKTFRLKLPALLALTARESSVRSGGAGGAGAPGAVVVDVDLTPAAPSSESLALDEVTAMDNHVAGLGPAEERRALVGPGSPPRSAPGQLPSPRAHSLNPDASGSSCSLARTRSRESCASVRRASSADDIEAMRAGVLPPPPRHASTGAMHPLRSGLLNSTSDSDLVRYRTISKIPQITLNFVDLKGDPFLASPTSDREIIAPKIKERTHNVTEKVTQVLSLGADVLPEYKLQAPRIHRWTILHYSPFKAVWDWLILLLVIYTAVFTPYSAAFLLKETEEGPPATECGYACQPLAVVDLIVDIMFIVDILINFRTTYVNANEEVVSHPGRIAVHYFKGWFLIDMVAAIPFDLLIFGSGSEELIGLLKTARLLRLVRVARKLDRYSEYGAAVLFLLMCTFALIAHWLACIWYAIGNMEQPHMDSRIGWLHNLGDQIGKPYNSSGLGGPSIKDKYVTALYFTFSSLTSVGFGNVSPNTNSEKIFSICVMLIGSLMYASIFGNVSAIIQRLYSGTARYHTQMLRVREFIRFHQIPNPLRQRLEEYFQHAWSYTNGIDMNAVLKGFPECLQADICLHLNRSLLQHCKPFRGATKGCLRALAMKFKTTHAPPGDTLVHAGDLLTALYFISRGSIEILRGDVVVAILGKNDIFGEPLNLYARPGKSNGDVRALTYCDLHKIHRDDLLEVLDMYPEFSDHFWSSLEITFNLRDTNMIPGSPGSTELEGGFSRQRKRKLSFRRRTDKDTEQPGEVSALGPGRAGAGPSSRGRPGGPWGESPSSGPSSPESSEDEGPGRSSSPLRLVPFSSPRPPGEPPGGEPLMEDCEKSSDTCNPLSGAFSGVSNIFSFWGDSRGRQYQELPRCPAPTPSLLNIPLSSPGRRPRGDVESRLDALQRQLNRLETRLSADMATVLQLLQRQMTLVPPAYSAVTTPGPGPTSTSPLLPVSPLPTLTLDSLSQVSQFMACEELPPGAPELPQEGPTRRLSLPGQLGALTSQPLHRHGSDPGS

Compound	hERG current change (%, negative = inhibition) at 1uM [%]
COc1cc(NC(=O)CSc2nc3[nH]ncc3c(=O)n2-c2ccc(Cl)cc2)cc(OC)c1	16.3
Cc1ccc(-c2ccc(CO)o2)cc1N	13.4
CC(=O)N(Cc1ccco1)C1(C(=O)NC2CCCCC2)CCCCC1	5.71
COc1ccccc1NC(=O)c1ccc(-c2ccccc2F)o1	12.9
CCCN(CC(=O)Nc1ccc(C(N)=O)cc1)CC(=O)Nc1cc(Cl)ccc1Cl	8.33
CCc1ncc(C(O)c2cccc(OC)c2OC)n1C (stereo not drawn)	4.14
Cc1ccc(NC(=O)C2CCCN(C3=NS(=O)(=O)c4ccccc43)C2)c(O)c1 (stereo not drawn)	5.29
COc1ccc(OCCSc2nc(C)c(Cc3ccccc3)c(=O)[nH]2)cc1	7.38
CCOC(=O)Nc1sc2c(c1C(=O)OCC)CCC2	14.7
C/C(=N\NC(=O)c1ccc(CN2CCc3ccccc3C2)cc1)c1ccccc1O	11.4
COc1ccc(Br)cc1CN(C)C(=O)c1cc(Cl)c2c(c1)OCCO2	13.9
CCC(=O)Nc1ccnc(-c2cccnc2)n1	2.92
Cc1nc2ncnn2c(C)c1CCC(=O)NC(C)c1ccc2c(c1)OCCO2 (stereo not drawn)	-15.5
COc1ccccc1OCC(=O)Nc1cccc(-c2nnc(-c3ccco3)o2)c1	15
COc1ccc(OC)c(-c2csc(NC(=O)Cc3ccc(F)cc3)n2)c1	15.5
COc1cccc(NC(=O)c2cc(C(=O)Nc3cccc(OC)c3)n(C)n2)c1	14.5
CCn1cc(C(=O)N2CC(C)CC(C)C2)c(=O)c2cc(S(=O)(=O)N(C)C)ccc21 (stereo not drawn)	0.69
N#Cc1ccccc1S(=O)(=O)N1CCN(C(=O)CN2C(=O)NC3(CCCC3)C2=O)CC1	17.6
Cc1ccc(/C=N/n2c(-c3ccco3)n[nH]c2=S)cc1	14.6

Compound	hERG current change (%, negative = inhibition) at 1uM [%]
C=CCn1c(SCCCC)nc([O-])cc1=O.[NH4+]	3.42
CC1CCN(c2ccc3c(c2)S(=O)(=O)c2ccccc2C3=O)CC1	12.8
Cc1oc2c(c1C(=O)c1ccccc1)C(=O)C(=O)c1ccccc1-2	4.1
COc1ccccc1N1CCN(C(=O)c2ccc(NS(=O)(=O)c3ccc(C)cc3)cc2)CC1	8.08
CC(C)(C)c1cc(/C=C2\NC(=O)NC2=O)cc(C(C)(C)C)c1O	13.1
CCCn1cnc2cc(NC(=O)c3cccs3)ccc21	15.7
O/N=C1\CCCc2c1nc(-c1ccccc1F)n2O	17.9
O=C(Nc1ccccc1OC(F)(F)F)c1ccc([N+](=O)[O-])cc1	6.59
Cc1ccc2c(c1)C1CN(C)CCC1N2C(=O)/C(C#N)=C/c1ccc2c(c1)OCO2 (stereo not drawn)	3.5
O=C(c1ccccc1Br)N1CCn2c1nc1ccccc12	-1.38
O=C1CC(N2CCN(c3ccc(Cl)cc3)CC2)C(=O)N1c1ccccc1 (stereo not drawn)	3.93
CN(C(=O)COC(=O)c1cccc(Cl)c1)C1CCS(=O)(=O)C1 (stereo not drawn)	4.65
Cc1cc(C(=O)N2CCc3ccccc3C2)n[nH]1	9.64
c1ccc(Nc2nc(-c3cccnc3)cs2)nc1	5.19
COC(=O)c1cc(=O)n(-c2ccccc2)c(=Nc2ccccc2)s1	12.8
COc1ccc(N2CCCn3c2nc2c3c(=O)n(Cc3ccc(C)cc3)c(=O)n2C)c(OC)c1	3.54
BrCCc1ccccc1	9.3
CCC(=O)Nc1cc(C(=O)OCc2ccc(C(=O)Oc3ccccc3)cc2)ccc1C	11.3
Cc1cc(C)c(C)c(OCCOCCN2CCOCC2)c1	0.238

Compound	hERG current change (%, negative = inhibition) at 1uM [%]
Cc1ccc(NC(=O)COC(=O)COc2ccc(Cl)cc2C)c([N+](=O)[O-])c1	5.43
CCS(=O)(=O)N1CCC(C(=O)Oc2ccc(C(=O)OC)cc2)CC1	6.64
O=C(/C(C=Nc1ccc(Br)cc1)=C(/O)c1ccco1)C(F)(F)F	-0.634
Cc1ccc(C(=O)N2CCN(c3ccccc3)CC2)cc1S(=O)(=O)N1CCCC1	3.98
CCOc1cc(CNCc2ccncc2)cc(Br)c1OCc1ccccc1F.Cl	10.1
CC(=O)c1cc(C#N)c(SCC(=O)OC(C)C)nc1C	5.57
COc1ccccc1CC(=O)N1CCN(c2cccc(C(F)(F)F)c2)CC1	5.11
COC(=O)c1ccc(C(=O)Nc2ccc3nc(-c4ccncc4)[nH]c3c2)cc1	6.68
COc1ccc([N+](=O)[O-])cc1N1C(=O)c2cccc3cccc(c23)C1=O	5.8
O=[N+]([O-])c1ccc(-c2nnc3n2CCCCC3)cc1	6.45
O=[N+]([O-])c1cc([N+](=O)[O-])c(Oc2cncc(Cl)c2)cc1NC1CCCCCCC1	12
CC(C)C[C@H](NC(=O)c1nc[nH]c1C(=O)NCc1ccccc1)C(=O)OC(C)(C)C	14.1
CN1C(=O)CC[C@H]1c1cccnc1	13.7
O=C(Oc1ccc(Cl)cc1)c1ccc2nccnc2c1	13.1
CCCCCCCN1CCN=C1N(C)C	-38.2
COc1ccc(C2CC2/C(C)=N/OC(=O)C2CC2)cc1 (stereo not drawn)	11.1
N#CCOc1nc(N2CCCC2)nc(N2CCCC2)n1	7.46
CCOCCCN(C)C1CCN(C(=O)c2oc3ccccc3c2NC(=O)c2ccc(F)cc2)CC1	-85.6
CCn1c(CSc2nc3ccccc3s2)nnc1SCC(=O)c1ccc(O)cc1O	10.4
